At least one read-out could not be matched to a standard name with certainty. Some results were stated once for a whole list of compounds, not compound by compound.
Tested on: HSV-1
Test: Anti-HSV-1 replication assay (Vero cells, plaque titer)
Format: cell-based, herpes simplex virus 1
Conditions: for HSV-1 suppression 1 μM: compound at 1 μM; for HSV-1 suppression 1 μM / HSV-1 suppression 5 μM: values separated by / are repeats; for HSV-1 suppression 5 μM: compound at 5 μM

## Cc1cc(O)c(=O)c(O)cc1C(=O)Nc1ccc(Cc2ccccc2)cc1 [compound 798]
  Suppression of HSV-1 replication at 1 μM: > 2.3 log10

## CCCCSc1ccc(SCCCC)c(O)c(=O)c1O [compound 694]
  Inhibition of HSV-1 replication at 0.33 μM: > 4.7 log10
Table 3 sulfur compounds
  HSV-1 suppression 1 μM: 5.68 log10

## CCCCCCSc1ccc(SCCCCCC)c(O)c(=O)c1O [compound 841]
  Inhibition of HSV-1 replication at 0.33 μM: > 4.7 log10
Table 3 sulfur compounds
  HSV-1 suppression 5 μM: 5.93 log10

## Cc1cc(O)c(=O)c(O)cc1C(=O)NCc1ccc(-c2ccccc2)cc1 [compound 539]
Table 2 amides
  HSV-1 suppression 1 μM: 0.37 log10
  HSV-1 suppression 5 μM: 5.28 log10

## O=c1c(O)cccc(S(=O)(=O)Cc2ccccc2)c1O [compound 705]
Table 3 sulfur compounds
  HSV-1 suppression 1 μM: 0.13 log10

## Cc1cc(O)c(=O)c(O)cc1C(=O)Nc1cccc(OCc2ccccc2)c1 [compound 836]
  Suppression of HSV-1 replication at 1 μM: > 2.3 log10

## Cc1cc(O)c(=O)c(O)cc1S(=O)(=O)c1ccccc1 [compound 336]
Table 3 sulfur compounds
  HSV-1 suppression 5 μM: 1.44 log10

## O=c1c(O)c(SCc2ccccc2)ccc(SCc2ccccc2)c1O [compound 703]
Table 3 sulfur compounds
  HSV-1 suppression 1 μM: 5.94 log10

## CCCCS(=O)(=O)c1ccc(S(=O)(=O)CCCC)c(O)c(=O)c1O [compound 536]
Table 3 sulfur compounds
  HSV-1 suppression 5 μM: 0.42 log10

## CCCCCCS(=O)(=O)c1cccc(O)c(=O)c1O [compound 699]
Table 3 sulfur compounds
  HSV-1 suppression 1 μM: 0.17 log10

## CCCCCCSc1cccc(O)c(=O)c1O [compound 840]
Table 3 sulfur compounds
  HSV-1 suppression 5 μM: 4.26 log10

Source: patent US12606529B2, “Sulfur and amide tropolone inhibitors of nucleotidyl transferases and uses therefor” (Saint Louis University, priority 2019, dated 2026)
